# Measurements reported in the supplement of paper PMC3334620.
# In all, about 33,000 sequences were measured (“E-score (-0.5 to 0.5)”: median about -0.011, highest 2% from about 0.28 on). This is one part of the list.
# Molecular target: T1, Gcr1 (UniProt P07261)
# T1 sequence: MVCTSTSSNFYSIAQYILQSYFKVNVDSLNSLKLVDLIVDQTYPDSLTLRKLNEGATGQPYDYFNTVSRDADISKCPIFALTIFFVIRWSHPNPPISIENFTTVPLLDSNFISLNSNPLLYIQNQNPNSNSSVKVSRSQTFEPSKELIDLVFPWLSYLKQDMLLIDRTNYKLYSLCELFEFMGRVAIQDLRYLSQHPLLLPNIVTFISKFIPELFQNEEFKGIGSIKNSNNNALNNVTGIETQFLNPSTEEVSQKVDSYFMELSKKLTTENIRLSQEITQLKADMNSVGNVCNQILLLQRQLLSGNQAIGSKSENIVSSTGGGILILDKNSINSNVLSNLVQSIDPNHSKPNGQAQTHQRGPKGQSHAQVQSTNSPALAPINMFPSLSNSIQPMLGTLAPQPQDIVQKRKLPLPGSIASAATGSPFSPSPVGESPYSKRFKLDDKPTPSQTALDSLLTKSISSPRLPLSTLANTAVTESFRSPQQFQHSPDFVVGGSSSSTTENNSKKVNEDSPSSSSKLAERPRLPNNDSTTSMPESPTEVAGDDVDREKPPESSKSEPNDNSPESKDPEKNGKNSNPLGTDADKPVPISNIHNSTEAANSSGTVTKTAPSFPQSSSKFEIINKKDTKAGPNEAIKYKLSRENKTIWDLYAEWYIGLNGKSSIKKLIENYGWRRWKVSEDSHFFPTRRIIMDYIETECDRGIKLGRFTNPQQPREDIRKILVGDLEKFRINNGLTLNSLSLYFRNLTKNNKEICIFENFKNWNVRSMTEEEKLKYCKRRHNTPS
# Experiment: PBM E-score (8-mer binding enrichment) (E-score (-0.5 to 0.5)); higher = stronger / more preferred TF binding; most listed sequences are background and not binding sites
# Conditions: protein concentration: 100 nM; construct: GST-full length
# Summary of the method: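 Masliner-normalised scans of fluorescent anti-GST signal were the basis for scoring. That signal came from GST-tagged yeast transcription factors applied at about 100-200 nM to double-stranded universal all-10-mer Agilent arrays on fresh or once-stripped slides. Each ungapped eight-base word, pooled with its reverse complement, received an E-score from the Universal PBM Analysis Suite.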
row,Sequence,PBM E-score
1,GAGCGCTC,-0.0936
2,GTTGGACA,-0.00959
3,ATAGAAAG,0.0346
4,ATACCGCG,0.127
5,ATTTATTG,0.107
6,AACAGTAT,-0.00126
7,CCATTGAG,0.12
8,ACTTATGG,0.163
9,GCTGGGTA,-0.0497
10,ACAGATAG,-0.00305
11,ATGCACTC,-0.126
12,ATACCAAA,0.174
13,AACTTCTC,0.00601
14,CCGATTTC,0.0757
15,CCCCGCCC,0.338
16,ATTTCGTA,0.122
17,CTTGAGAA,0.0493
18,AACGTTCC,0.032
19,GGAGTTTA,-0.0666
20,CGAAATGC,-0.237
21,GCCGATAC,-0.172
22,CACGCATC,0.198
23,ATACTCCG,-0.0531
24,AACGAGTG,-0.0992
25,TAACAGGA,0.198

row,Sequence,PBM E-score
1,CGGCGCAG,-0.0325
2,AGTACCAC,0.0794
3,ACCCTCAT,-0.111
4,CCGGTTAG,0.185
5,GCTAGTGA,-0.0869
6,CGCCTAAC,0.166
7,CTACCGAA,-0.0445
8,CTCCAAGA,0.0262
9,CTGGAGTC,0.172
10,TACTGTCA,-0.0784
11,AGGATTCA,-0.164
12,CAACAATA,0.0483
13,ACCCCCCT,-0.356
14,CTTTCCAC,-0.0221
15,ACGTATAC,0.102
16,AATTGCGC,-0.0135
17,CATGGTAA,0.00173
18,ACCCTCGT,0.00187
19,ACTTCCCG,0.0552
20,AGTTAGGA,0.112
21,GGCTAGTA,-0.0456
22,CACTTCCG,0.0282
23,CGCGGGAC,-0.102
24,CATGGCAC,-0.0233
25,CGTGGGCA,-0.108

row,Sequence,PBM E-score
1,CGTATCGA,-0.103
2,AACATTGA,0.0845
3,CCACTCGA,0.159
4,CGTGAGAA,-0.16
5,ACGCAAGT,-0.0202
6,AGTTAGTC,-0.0577
7,GTGCGACA,-0.158
8,AGGAATGA,-0.0586
9,TCAAGTCA,-0.0403
10,AAAGGCGC,0.182
11,CTCGCACC,-0.0379
12,TCGTGAGA,-0.0171
13,AACCAGGC,-0.0479
14,AGGCAACC,0.0186
15,ATTAAAAA,0.332
16,ACGTTTTC,0.00046
17,GTCTGAAC,-0.172
18,AAGAATTC,0.272
19,AAGGCGAA,-0.0278
20,GTCCGGCA,0.037
21,CAGATTGG,-0.0172
22,GTCACGGA,0.0137
23,ACCGGCAT,0.0959
24,CCAGTGAC,0.0638
25,ATATGAAC,-0.0208

row,Sequence,PBM E-score
1,CAACGGAA,0.0332
2,GTACGGCA,-0.108
3,GCGGACCC,0.123
4,ACTAGACG,0.0745
5,CACAAATG,-0.0532
6,GGTCTGTA,0.0666
7,CAGTCCCC,-0.0937
8,ATGGGGGC,-0.0269
9,CACCAAGC,0.158
10,AGAGAGCG,-0.163
11,ATATGGGG,0.0505
12,AAGAAGTA,0.0677
13,AAGATACA,0.0175
14,TGGACCAA,-0.129
15,ATAGACAC,-0.199
16,CCAACCGG,-0.0067
17,AGTTCCTC,0.114
18,GTTGAATA,-0.017
19,AGTGATGC,0.04
20,CATGCAGG,-0.0152
21,CTTCGCCC,-0.235
22,GAACAATC,-0.0848
23,AAATCAGC,0.0131
24,CATCACAC,-0.0142
25,AGATTGCT,-0.0875

row,Sequence,PBM E-score
1,CACCATCC,0.0621
2,ACTAATTA,0.0585
3,GCCGATCA,-0.0166
4,GATTCGAA,0.097
5,ACCGGGCT,0.113
6,AGATACAC,-0.0218
7,CGTCGTCC,0.0126
8,CCCGGCGG,0.13
9,GCTAACAC,-0.191
10,ACATGGGG,0.118
11,GGCGAACA,-0.0975
12,CAACGCAA,-0.176
13,ATTCGGCG,0.103
14,AGGCGTAT,0.0582
15,CGTACCTC,-0.124
16,ATATCCAC,-0.194
17,AAATGAGC,-0.00173
18,GTTAGCAA,-0.0123
19,CACCGACG,-0.145
20,AGGCGAGC,-0.0288
21,GGGTATGA,-0.0479
22,CCAAAAGA,0.0404
23,AATGGCTA,0.0611
24,AGCCTCCT,0.197
25,ACCCTAGG,-0.017

row,Sequence,PBM E-score
1,CCCATAAG,0.258
2,CGGTCCAA,-0.223
3,ACTGAGGG,-0.0256
4,CTATCATC,-0.184
5,AGATGTAA,0.0563
6,CCCCTGAG,-0.0196
7,CATACAGG,0.049
8,ATAAAGCA,0.0949
9,ATATCAAG,0.0515
10,TCCACGGA,0.00796
11,ATATGCCC,-0.185
12,AATCGTTA,-0.0176
13,CGTGATCA,-0.118
14,AGGAACTA,-0.0857
15,ATGCCAGG,0.127
16,ATAGGAAG,0.414
17,ACATGTCG,-0.176
18,ATCATGGC,-0.205
19,GGCGCTGA,0.19
20,AAGCATAC,0.00889
21,ACTGCCAC,0.101
22,AGTCGTCC,-0.172
23,ACTATGGG,0.0728
24,ACTTGGTC,-0.11
25,CCGCCACG,-0.0924

row,Sequence,PBM E-score
1,CACCGTTC,-0.218
2,GTTTTCAA,0.0456
3,GGAGCATA,-0.256
4,GGGAAAGA,-0.219
5,GGGTGCAA,0.208
6,TAAAGATA,0.166
7,AAAATGCG,0.143
8,CAAGGCGC,0.152
9,AAAGACTT,-0.211
10,ACTGAGCT,0.0361
11,CTGAGATA,-0.0299
12,GTCAATGA,-0.0108
13,TATCCTAA,0.17
14,AAGCAGTC,0.0107
15,ACACCGGC,-0.0126
16,CGACTGTA,-0.182
17,AGTATGTA,0.12
18,TAGTAAAA,0.266
19,ATCAAGTA,-0.0597
20,CCATACGA,-0.214
21,ACAATCTG,-0.0945
22,TAGTGCCA,0.0147
